The results in this text go back to PubChem BioAssay AID602293 (National Center for Advancing Translational Sciences (NCATS), 2012).

In all, about 1,300 compounds went through this assay and about 30 (2%) were called active. Another 10% or so got no clear call; they are omitted. Calls follow the shape of the dose curve; as a rule, active = well fitted inhibition curve with a large enough effect; inconclusive = small, poorly fitted or top-dose-only effect; inactive = flat fitted curve, though single readings scatter. Some of the results follow.
% is scaled to controls: 0 for no effect and ±100 for the full control effect.

This assay in a line: qHTS for antagonists of the Thyroid Stimulation Hormone Receptor: Hit Validation in HTRF Activity in a Luteinizing Hormone Receptor Cell Line. As to conditions: LHR-expressing cell line, cAMP HTRF, antagonist mode; series mostly up to 58 µM; activity change, negative = inhibition: at the top concentration. The essentials: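 Counter-screen on LH receptor–transfected HEK 293 cells: 30 min compound exposure at room temperature in medium containing 100 uM RO 20-1724 phosphodiesterase inhibitor. Cellular cAMP read by competitive HTRF after lysis with d2-cAMP and anti-cAMP antibody (330 nm excitation; 615/660 nm emission).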
(In general: Quantitative high-throughput screening tests each substance at several concentrations.)
For the molecule `C=C(C)C(=O)OCC(O)COc1ccc(C(C)(C)c2ccc(OCC(O)COC(=O)C(=C)C)cc2)cc1` (centres undefined), the “activity change, negative = inhibition” value is inactive: -3.03%.
The result for `O=C(N1CCN=C1SCc1cccnc1)C12CC3CC(CC(C3)C1)C2` reads inactive: -1.74%; that for `CCCOc1ccc(-c2cc(C(=O)NCC3CCCO3)c3ccccc3n2)cc1` (centres undefined), inactive: -3.23%.
The result for `O=C(CCC(=O)Nc1ccccc1)N/N=C/c1ccncc1` reads inactive: 0.327%.
To `Cc1cccc(OCCCCc2c(C)n[nH]c2C)c1C` belongs inactive: -0.833%; to `Cc1ccccc1C(=O)N1CCN(c2ccc(NC(=O)CSc3ccc(Cl)cc3)cc2)CC1`, inactive: -5.18%.
Take `CC(C)C[C@H](N)c1nnc(S(=O)(=O)Cc2ccc(F)cc2)o1`: the “activity change, negative = inhibition” value was inactive: -0.792%.
As to `COc1ccc(C(=O)Nc2ccc(Cl)c(S(=O)(=O)Nc3ccccc3OC)c2)cc1`, the “activity change, negative = inhibition” value was inactive: -6.58%.
The result for `COC(=O)Cn1c(=NC(=O)CSC(C)=O)sc2ccccc21` reads inactive: -1.47%.
The result for `CN(Cc1ccco1)S(=O)(=O)c1csc(C(N)=O)c1` reads inactive: 0.618%.
For the molecule `O=C(CSc1n[nH]c(=O)n1C1CC1)c1ccc2c(c1)OCCO2`, the “activity change, negative = inhibition” value is inactive: -0.0714%.
The result for `O=C(CSc1ccc2nnc(CCNC(=O)c3ccccc3)n2n1)NCc1ccc(F)cc1` reads inactive: 3.18%; that for `C1=C(CCNc2ncnc3c2[nH]c2ccccc23)CCCC1`, inactive: -9.93%; that for `O=C(Nc1nnc(SCc2ccc(Cl)cc2Cl)s1)C1COc2ccccc2O1` (centres undefined), inactive: 1.21%.
With `CC(C)S(=O)(=O)C1=NSC2=NC(=O)/C(=C\c3ccc(-c4ccccc4)o3)C(=N)N21`, the “activity change, negative = inhibition” value is inactive: 1.39%.
To `C=CCSc1nsc(NC(=O)Nc2ccc(F)cc2)n1` belongs inactive: -3.33%; to `O=C(c1cccs1)c1ccc(-c2cccs2)s1`, inactive: -4.26%.
To `COc1ccccc1N1C(=O)c2cccc3c(Cl)ccc(c23)C1=O` belongs inactive: -0.929%.
The result for `O=C(Nc1cccc(Cl)c1)c1cc(N=Nc2ccc([N+](=O)[O-])cc2Cl)ccc1O` reads inactive: -2.02%; that for `COc1ccccc1N1CCN(c2nc(C)nc3c2oc2ccccc23)CC1`, inactive: 1.31%.
As for `CCOC(=O)CCS(=O)(=O)c1nc(-c2ccccc2)cc(C(F)(F)F)n1`, the “activity change, negative = inhibition” value is inactive: 0.21%.
For the molecule `Cc1ccc(C)c(N2CCN(C(=O)CCS(=O)(=O)c3ccc4c(c3)CCN4C(=O)C3CC3)CC2)c1`, the “activity change, negative = inhibition” value is inactive: 0.0752%.
To `Cc1ccc(NC(=O)Cn2ncc3c([nH]c4ccccc43)c2=O)cc1Cl` belongs inactive: -0.148%; to `COc1ccc(NS(=O)(=O)c2cccc(NC(=O)C3=NN(c4ccccc4)C(=O)CC3)c2)cc1`, inactive: -2.7%; to `COc1cc(C(=O)NCCNC(=O)c2cnccn2)cc(OC)c1OC`, inactive: 1.01%.
In the case of `Cc1[nH]n(C)c(=O)c1C(=O)c1c(-c2c(Cl)cccc2Cl)noc1C`, the “activity change, negative = inhibition” value is inactive: 3.14%.
The result for `O=[N+]([O-])c1cc(Br)c(O)c(/C=N/Nc2nc3ccccc3s2)c1` reads inactive: -0.562%.
The result for `O=C(Nc1ccc(Oc2ccc(Cl)cc2)c(Cl)c1)c1cc(I)cc(I)c1O` reads inactive: -0.309%; that for `Cc1cc(-n2c(C)cc(C(=O)CSc3[nH]c(=O)cc(C(F)(F)F)c3C#N)c2C)no1`, inactive: 2.79%; that for `CN(C)c1ccc(NC(=O)Oc2ccccc2)cc1`, inactive: 0.835%.
To `O=S(=O)(Nc1ccc(-c2ccc(N3CCOCC3)nn2)cc1)c1cc(Cl)ccc1Cl` belongs inactive: -1.92%; to `COc1ccc(C(CC(=O)N2CCOCC2)c2c(OC)cc(OC)c3c(-c4ccccc4)cc(=O)oc23)cc1` (centres undefined), inactive: -2.67%.
Regarding `Cc1cccc(NC(=O)C2C3CCC4C(CCC32)C4(Cl)Cl)c1` (centres undefined), the “activity change, negative = inhibition” value is inactive: -0.704%.
The result for `O=c1[nH]c(C2CCN(S(=O)(=O)c3cccc(Cl)c3)CC2)nc2c1nnn2Cc1ccccc1` reads inactive: 2.58%.
As for `CC1=N/C(=C\c2ccc([N+](=O)[O-])cc2)C(=O)N1c1ccc(Cl)cc1`, the “activity change, negative = inhibition” value is inactive: 3.22%.
To `Cc1ccc(-c2cnc(C3CC3)o2)cc1S(=O)(=O)Nc1ccccc1` belongs inactive: -4.77%.
The result for `O=Cc1c[nH]c2ccc(C(=O)c3ccccc3)cc12` reads inactive: -1.03%; that for `CCN(C(=O)c1cc2c(=O)n3ccccc3nc2n1C)C1CCCCC1`, inactive: 1.28%; that for `CC(=O)Nc1ccc(S(=O)(=O)Nc2c(NC3CCCCC3)c3ccccc3oc2=O)cc1`, inactive: 2.93%.
To `N#C/C(=N/Nc1ccc(OC(F)(F)F)cc1)C(N)=S` belongs inactive: -0.939%; to `CCOC(=O)c1sc(NC(=O)c2cc(-c3ccccc3C)nc3ccccc23)c(C#N)c1C`, inactive: -5.43%; to `COc1ccccc1NC(=O)NNC(=O)CCN1CCOCC1`, inactive: -0.59%.
For `CCOP(=O)(Cc1ccc(C(C)(C)CC(C)=O)o1)OCC`, the “activity change, negative = inhibition” value was inactive: 0.366%.
To `CCCCNC(=O)CC1C(=O)N(Cc2ccccc2)C(C)c2nc3ccccc3n21` (centres undefined) belongs inactive: 3.43%.
